Experimental data as given in PubChem BioAssay AID485344 (National Center for Advancing Translational Sciences (NCATS), 2010).
Screen size: about 340,000 compounds; about 6,900 (2%) were called active. Only a part is listed here, and it is no random draw. Where no call is shown, the source filed none.

Target: D(2) dopamine receptor (Homo sapiens) (UniProt P14416)
Assay: HTS Assay for Allosteric Antagonists of the Human D2 Dopamine Receptor: Primary Screen for Antagonists; further: 0% is about no effect
Settings: HEK293 TREx D2 cells, calcium flux, dopamine EC80; at 10 µM; stronger effect = higher value
Method in brief: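 Antagonism is scored as inhibition of an EC80 dopamine-evoked calcium signal in a force-coupled, tetracycline-inducible HEK293 T-REx D2 line, with compound present 180 s before agonist.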

UniProt P14416, sequence (P14416 whole entry, looked up): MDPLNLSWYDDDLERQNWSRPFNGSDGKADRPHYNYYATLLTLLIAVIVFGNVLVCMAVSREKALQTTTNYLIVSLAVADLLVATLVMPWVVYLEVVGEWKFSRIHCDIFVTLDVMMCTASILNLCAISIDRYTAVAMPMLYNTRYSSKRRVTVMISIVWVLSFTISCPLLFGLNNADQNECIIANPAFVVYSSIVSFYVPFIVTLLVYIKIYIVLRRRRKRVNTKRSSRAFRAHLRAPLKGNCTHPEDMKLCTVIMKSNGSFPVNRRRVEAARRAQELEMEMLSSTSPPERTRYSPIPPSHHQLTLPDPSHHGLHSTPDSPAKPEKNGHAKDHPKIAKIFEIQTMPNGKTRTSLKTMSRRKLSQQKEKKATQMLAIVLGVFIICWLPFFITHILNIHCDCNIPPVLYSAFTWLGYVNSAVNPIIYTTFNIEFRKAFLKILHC

Row | SMILES | inhibition [%]
1 | NCCc1nc2cccnc2n1-c1ccccc1 | 14.6
2 | Cc1ccc(-c2nc(CSc3nncn4c3cc3occc34)c(C)o2)cc1 | -4.95
3 | COc1ccc(C)cc1NC(=O)N1CC(C)Sc2ccccc21 (stereo not drawn) | -0.245
4 | Cc1ccc(Cn2cc(C(=O)c3ccc4c(c3)OCO4)c(=O)c3cc(C)ccc32)cc1 | -11.4
5 | Cc1cc(C)cc(NC(=O)c2cnc3sc(N4CCCC4)nn3c2=O)c1 | -15.5
6 | CCc1ccccc1NC(=O)c1nnn(Cc2ccc(Cl)cc2)c1N | 2.34
7 | COCCNC(=O)CSc1nc(-c2ccccc2)[nH]c1-c1ccc(OC)cc1 | -2.96
8 | CCOC(=O)C1=C(CN2CCN(c3ccc(OC)cc3)CC2)NC(=O)NC1c1ccc(Cl)cc1 (stereo not drawn) | -1.28
9 | CCOc1ccc(NC(=O)C2CCCN(S(=O)(=O)c3c(C)noc3/C=C/N(C)C)C2)cc1 (stereo not drawn) | -1.39
10 | CC(C)Cn1c(=O)c2sccc2n2c(CCCC(=O)N3CCN(c4ccc(F)cc4)CC3)nnc12 | -0.964
11 | Fc1ccc2[nH]c(-c3cccs3)cc2c1 | -3.84
12 | COc1cccc(-n2c(SCC(=O)Nc3nnc(C)s3)nc3c([nH]c4ccccc43)c2=O)c1 | -1.36
13 | Cc1ccc(CNC(=O)c2cnn(-c3cccc(C)c3)c2C2CCN(C(=O)OC(C)(C)C)CC2)cc1 | 4.79
14 | CC(=O)c1ccc(NS(=O)(=O)c2ccc(-c3cnc(C4CC4)o3)cc2)cc1 | 15.4
15 | Cc1ccc(NC(=O)c2cc3nc(-c4ccccc4)cc(-c4ccccc4)n3n2)cc1 | -10.9
16 | CCCCc1nn2c(=O)cc(COC(=O)c3ccc(NC(=O)C(CC)CC)cc3)nc2s1 | 12.7
17 | CCn1cnc2c(=O)oc3ccc(S(=O)(=O)Nc4ccc(OC)cc4)cc3c21 | 20.7
18 | CCOCCCn1c(=N)c(C(=O)NC2CCCC2)cc2c(=O)n3cc(C)ccc3nc21 | 1.37
19 | CCC1CCCCN1S(=O)(=O)c1cc(C(=O)Nc2ccc(C)c(F)c2)ccc1F (stereo not drawn) | -23.3
20 | COc1ccc(CCNC(=O)c2ccc(Cn3c(=O)c4ccccc4n(Cc4cccc(C)c4)c3=O)cc2)cc1OC | 3.93
21 | Cc1cc(C)cc(NC(=O)Nc2nnc(N(C)C3CCCCC3)s2)c1 | 3.77
22 | COc1ccccc1-c1noc(CCCC(=O)NCc2ccco2)n1 | 13.7
23 | COc1cc(NC(=O)Cn2c(=O)n(CC3CCCO3)c(=O)c3ccccc32)cc(OC)c1 (stereo not drawn) | -10.5
24 | CCOc1ccc(CCNc2nc3ccccc3n3c(C)nnc23)cc1OCC | 21.6

Row | SMILES | inhibition [%]
25 | COc1ccc2sc(N(Cc3cccnc3)C(=O)COc3ccccc3)nc2c1 | -2.15
26 | COc1ccc(C(=O)Nc2nnc(C(C)C)s2)cc1OC | -16.1
27 | Cc1cccc(Oc2nc3c(c(=O)n(C)c(=O)n3C)n2Cc2ccccc2)c1C | -1.62
28 | COc1ccc(-n2cc(-c3ccccc3)c3c(NC4CCCC4)ncnc32)cc1 | -8.44
29 | Cc1cccc(C)c1OCc1cc(=O)n2c3c(sc2n1)CCCC3 | -10.2
30 | Cc1ccc(C(=O)COC(=O)C(Cc2c[nH]c3ccccc23)NC(=O)c2ccc(C(C)(C)C)cc2)cc1 (stereo not drawn) | 8.04
31 | CCOC(=O)C(C)Sc1nc(-c2ccccc2Cl)cc(-c2ccccc2)c1C#N (stereo not drawn) | -0.896
32 | Cc1cc(C)cc(NC(=O)CSc2nc(=O)n(Cc3ccccn3)c3c2CCC3)c1 | -19.3
33 | CCN(c1ccccc1)S(=O)(=O)c1ccc(-c2cc(C)no2)s1 | 7.91
34 | Cc1ccc2[nH]c(=O)c(CN(C(=O)c3cccc(Cl)c3)C(C)(C)C)cc2c1 | -4.24
35 | Cc1ccccc1C(=O)Nc1cccc(C(=O)OCc2cc(=O)n3ccsc3n2)c1 | -1.32
36 | Cc1ccc(NC(=O)c2ccc(CN3CC(=O)N4CCCCC4C3=O)cc2)cc1 (stereo not drawn) | -12.3
37 | COc1ccc(OC)c(CNC(=O)c2cnc3c(C)cccn3c2=O)c1 | -17.6
38 | CCc1cccc(NC(=O)Cn2c(=O)n(-c3cccc(Cl)c3)c(=O)c3c2c2cc(C)ccc2n3C)c1 | -7.95
39 | Cn1c(SCC(=O)N2CCCc3ccccc32)ncc(C(=O)Nc2ccccc2)c1=O | 14.7
40 | CCc1nn2c(=O)cc(COC(=O)c3ccc(NC(=O)COc4ccc(C)cc4)cc3)nc2s1 | 6.81
41 | CC1=C(C(=O)Nc2ccc(C)cc2C)C(c2ccc(C(=O)O)cc2)n2nc(SCc3ccccc3)nc2N1 (stereo not drawn) | 5.71
42 | CCOc1ccc(CNC(=O)CC(C)n2nc(C)cc2C)cc1OC (stereo not drawn) | -8.15
43 | Cc1ccc2c(c1)c1c(c(=O)n(-c3ccccc3)c(=O)n1CC(=O)c1ccc(F)cc1)n2C | 1.88
44 | COc1cc(OC)c(N(C)C(=O)c2cn(C3CCCC3)c(=O)c3c2c2ccccc2n3C)cc1Cl | 4.03
45 | Cc1ccccc1C(=O)OCc1cc(=O)n2nc(C(C)C)sc2n1 | 1.95
46 | CCN1CCN(C(c2ccc(C)cc2)c2c(O)cc(C)n(Cc3ccco3)c2=O)CC1 (stereo not drawn) | -4.94
47 | CN(Cc1ccccc1)S(=O)(=O)c1ccc2[nH]c3c(c2c1)CCCCC3 | -0.853
48 | Cc1ccc(N2CCN(C(=O)c3cnn(-c4ccc(F)cc4F)c3C3CCN(C(=O)OC(C)(C)C)CC3)CC2)c(C)c1 | 8.64
